Each structure is given as a SMILES string. The full ranking holds about 110,000 compounds; the median of “z-score” is about -0.1, and the highest 2% start at about 2. Some of the results follow.

In the experiment the target is Metabotropic glutamate receptor 8 (Rattus norvegicus) (UniProt P70579). Briefly: rat mGluR8 modulators via GIRK flux, primary screen, cell-based, thallium flux, HTS (AID 488969). The following applies: HEK293 rat mGluR8, GIRK (G protein-gated inwardly rectifying potassium channel) thallium flux, FluoZin2; at 10 µM; stronger effect = higher value; submaximal glutamate (EC20) added with thallium.
Chain of UniProt P70579 (P70579 whole entry, looked up): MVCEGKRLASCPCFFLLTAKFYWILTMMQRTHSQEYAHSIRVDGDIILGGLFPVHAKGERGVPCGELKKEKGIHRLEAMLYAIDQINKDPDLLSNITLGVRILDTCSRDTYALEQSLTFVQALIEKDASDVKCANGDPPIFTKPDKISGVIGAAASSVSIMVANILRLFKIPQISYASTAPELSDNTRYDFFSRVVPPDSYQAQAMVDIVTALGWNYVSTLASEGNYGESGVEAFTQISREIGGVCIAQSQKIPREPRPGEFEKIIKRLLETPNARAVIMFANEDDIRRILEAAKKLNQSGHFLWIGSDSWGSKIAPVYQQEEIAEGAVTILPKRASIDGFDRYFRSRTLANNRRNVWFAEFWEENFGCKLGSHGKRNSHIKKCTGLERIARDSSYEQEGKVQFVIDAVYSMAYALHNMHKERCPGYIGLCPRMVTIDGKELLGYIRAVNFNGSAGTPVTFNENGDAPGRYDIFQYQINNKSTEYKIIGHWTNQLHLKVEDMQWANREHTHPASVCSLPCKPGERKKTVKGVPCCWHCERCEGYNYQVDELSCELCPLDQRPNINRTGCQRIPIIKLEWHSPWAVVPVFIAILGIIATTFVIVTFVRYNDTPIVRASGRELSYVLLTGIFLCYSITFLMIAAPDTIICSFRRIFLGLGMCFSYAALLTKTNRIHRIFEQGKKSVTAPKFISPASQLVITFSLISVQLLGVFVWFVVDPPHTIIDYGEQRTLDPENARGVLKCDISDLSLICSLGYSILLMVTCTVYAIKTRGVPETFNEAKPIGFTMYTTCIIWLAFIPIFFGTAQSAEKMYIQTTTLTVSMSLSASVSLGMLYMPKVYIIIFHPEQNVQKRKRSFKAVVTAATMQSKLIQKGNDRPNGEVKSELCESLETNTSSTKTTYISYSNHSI
Molecule `O=C(NC1CCCCC1)C(c1ccccc1)N1CCc2ccccc21` (centres undefined) returned a z-score of 0.0677.
The result for `S=C(NCCc1ccccc1)NCCc1ccccc1` reads -0.0491; that for `O=C(Nc1ccccc1)Nc1ccccc1C(=O)NCc1ccco1`, 0.367; that for `O=C(CCOc1ccccc1)Nc1cccc(S(=O)(=O)Nc2ccccc2Cl)c1`, 0.291.
In the case of `O=C(CSc1nc(-c2ccccc2)c(-c2ccccc2)[nH]1)Nc1ccc2c(c1)OCO2` it was -0.21; in that of `Cc1cc(C)n(Cc2ccccc2Cl)n1`, -0.335.
In the case of `CC(=O)N1CCN(c2ccc(Nc3ncnc4c3oc3ccccc34)cc2)CC1` it was -0.134; in that of `Cn1c(N)c(C(=O)COC(=O)c2ccc3c(c2)OCCO3)c(=O)n(C)c1=O`, 0.00498; in that of `CC1(C)C(=O)OC(c2ccccc2)C2(CCCC2)C1=O` (centres undefined), -0.477.
The molecule `c1ccc(C(c2nnnn2Cc2ccco2)N2CCN(c3nc4ccccc4s3)CC2)cc1` (centres undefined) showed a z-score of 0.814.
The molecule `CCCCSc1nnc([C@@H](NC(=O)OC(C)(C)C)C(C)C)o1` displayed a z-score of 0.185.
The result for `O=C(Nc1cnn(Cc2ccc(Cl)cc2Cl)c1)c1cc(-c2cccs2)on1` reads -0.108.
The molecule `CN1CCC(N2CCCC(C(=O)O)C2)CC1` (centres undefined) displayed a z-score of -0.282.
The molecule `COc1cc(NC(=O)c2c3c(nc4ccccc24)CCC3)cc(OC)c1` displayed a z-score of 0.174.
In the case of `CC1(C)Cc2nc3sc4c(OCc5ccccc5)ncnc4c3cc2CO1` it was -0.0531.
The result for `Cn1ncc(C#N)c1/N=C/N1CCOCC1` reads -0.742; that for `CC1=CC(C)(C)N2C(=O)C3(C(C#N)=C(N)Oc4cc(O)ccc43)c3c(C)c(C)cc1c32` (centres undefined), 0.981.
The result for `CCOc1ccc(/C=N/NC(=O)c2cc(-c3ccco3)nc3ccccc23)cc1` reads 0.00219; that for `CCCC12CN3CC(C)(CN(C1)C31C(=O)Nc3ccc(C)cc31)C2=O` (centres undefined), 0.6.
For `CCCCNC(=O)Nc1ccccn1`, the z-score is -0.557.
`Cc1ccc(CN2CCN(C(=O)c3ccco3)CC2)cc1`: the z-score worked out at 0.292.
The result for `N#Cc1cnn(-c2nc3sc4c(c3c(=O)[nH]2)CCCC4)c1N` reads 0.11; that for `COc1cccc(CSc2nc3cc4c(cc3cc2C)OCCO4)c1`, -0.176.
The result for `Nc1nnnn1/N=C/c1ccc(N2CCCCC2)c([N+](=O)[O-])c1` reads 1.18; that for `COc1ccc(NC2CC(=O)N(C(C)C)C2=O)cc1` (centres undefined), 1.17.
In the case of `Cc1cc(OCCCn2cnc3ccccc3c2=O)ccc1[N+](=O)[O-]` it was -0.824; in that of `Cc1ccc(-c2nn(-c3ccccc3)cc2CN(Cc2ccccc2)C(=O)CCC(=O)O)o1`, -0.348; in that of `CCOC(=O)c1c(N)c(C#N)nn1-c1ccccc1C(=O)OC`, 0.616.
For `CCCC(=O)c1ccc(N2CCN(C(=O)c3ccc(Br)cc3)CC2)c(F)c1`, the z-score was 0.3.
In the case of `COC(=O)CC(NC(=O)c1ccc(C)cc1)c1ccccc1` (centres undefined) it was -0.129; in that of `COC(=O)C1=C(C)N=C2SC(C#N)=C(N)N2C1c1cccc(OC)c1` (centres undefined), -1.34.
The result for `Cc1ccc(Cn2nnc3c(=O)n(CC(=O)N4CCN(c5ccccc5)CC4)cnc32)cc1` reads -0.895; that for `CCOC(=O)c1ccc(Nc2nc(C)cc(C)c2C#N)cc1`, -0.182.
In the case of `Cc1nc(NCCc2ccccc2F)c(C#N)c(C)c1[N+](=O)[O-]` it was 0.24; in that of `Cc1cc(C)cc(Oc2coc3cc(OC(=O)c4cccnc4)ccc3c2=O)c1`, -0.809.
With `O=C(c1cc2cc(Br)ccc2oc1=O)N1CCCC1`, the z-score came out at 0.0138.
The result for `COc1cccc(NC(=O)Nc2cc(NC(=O)Nc3cccc(OC)c3)c(C)nc2C)c1` reads -0.17.
Molecule `COc1ccc(C(=O)Oc2cccc(/C=N/NC(N)=S)c2)cc1` returned a z-score of -0.117.
`CCOC(=O)C1=C(C)NC2=C(C(=O)C(C(=O)OCC)C(c3ccco3)C2)C1c1ccccn1` (centres undefined) showed a z-score of -0.284.
The result for `CCOC(=O)c1[nH]c2ccccc2c1NC(=O)COC` reads -0.156; that for `Clc1ccc(CSc2nnc(NC3=NCCCCC3)s2)cc1`, 0.0188.
As to `CCCOC(=O)Nc1nnc(CCC)s1`, the z-score stood at 0.0541.
Take `COCCN(Cc1cc2cc(C)c(C)cc2nc1Cl)C(=O)Nc1ccccc1`: the z-score was -0.132.
The result for `C=CCC(C)(NCc1ccccc1)c1ccccc1` (centres undefined) reads 0.26.
In the case of `CC(NC(=O)COC(=O)c1ccco1)c1ccccc1` (centres undefined) it was 0.533; in that of `CCN(CC)c1ccc(C(=O)N/N=C(\C)c2cccc(OC)c2)cc1`, 0.289.
`COc1cc(C(=O)O/N=C2/C=CC(=O)C(C)=C2C)cc(OC)c1OC` had a z-score of 0.811.
`C=CCSc1nnc2n(CCc3ccccc3)c(=O)c3c4c(sc3n12)COC(C)(C)C4` showed a z-score of 0.22.
In the case of `COc1ccc(C2C(C#N)=C(N)N(c3sc4c(c3C#N)CCCC4)C3=C2C(=O)CC(C)(C)C3)cc1OC` (centres undefined) it was 0.32.
The result for `c1ccc(-n2nnnc2NC2CCCCC2)cc1` reads -0.018; that for `O=C(c1ccc(S(=O)(=O)N2CCCCC2)cc1)c1nnc(-c2ccc(Cl)cc2)o1`, 0.27; that for `Cc1ccc(SCCNC(=O)c2cccc([N+](=O)[O-])c2C)cc1`, -0.0182.
The result for `COC(=O)c1c(C(=O)OC)c2oc3ccccc3n2c1Cl` reads -0.407.
For `Clc1ccc(-n2nnnc2-c2cnc(-c3ccccn3)nc2-c2cccs2)cc1`, the z-score is -1.83.
The result for `Cc1ccc(S(=O)(=O)Nc2ccc3c(c2)nc2n3CCN(Cc3ccccc3)C2)cc1` reads -0.43; that for `Cc1ccc(S(=O)(=O)n2cc(-c3ccccc3)c(N)n2)cc1`, -0.502.
The result for `C=CCSc1nnc(-c2ccncc2)n1-c1ccc(OCC)cc1` reads -0.351; that for `CC(C)Cc1nc(N2CCOCC2)c(C#N)c2c1COC(C)(C)C2`, 2.42; that for `COc1ccc(CNC(=O)C2CC(=O)N(c3ccc(OCC(=O)N4C(C)CCCC4C)cc3)C2)cc1` (centres undefined), 0.0922.
In turn, `NS(=O)(=O)c1ccc(Nc2nc(-c3ccc(O)cc3O)cs2)cc1` yielded a z-score of -0.0985.
The result for `O=C(Nc1ccccc1Oc1ccccc1)c1ccccc1F` reads -0.161.
The result for `CN(C)c1ccc(-c2nn3c(C4CCCCC4)nnc3s2)cc1` reads 0.961; that for `Cc1[nH]c2c(ccc3ccccc32)c1C1C(CCN)C1(C)C` (centres undefined), 0.0887.
In the case of `COc1ccc(OCc2nc3c4cc(OC)c(OC)cc4nc(=S)n3[nH]2)cc1` it was -0.409.
Consider `COc1cccc(C2C(C(N)=O)=C(C)Nc3nc(CCCO)nn32)c1OC` (centres undefined), for which the z-score amounted to 0.753.
`COC(=O)c1cccc(NC(=O)CCCOc2cccc(C)c2)c1` registered a z-score of -0.406.
In the case of `CN(C)CCCN(Cc1ccccc1)C(=S)Nc1ccc(OC(F)F)cc1` it was -0.428; in that of `Cc1cccc(N2CCCC2=Nc2ccc(Br)cc2C#N)c1`, -0.254.
The molecule `COC(=O)C(C)Sc1nnc(Cc2cc(=O)[nH]c(=O)[nH]2)n1-c1cccc(OC)c1` (centres undefined) registered a z-score of 0.0364.
In the case of `COc1ccc(C2c3c(oc4ccccc4c3=O)C(=O)N2c2ccc(C)cn2)cc1OC` (centres undefined) it was 0.254; in that of `COc1ccc(-c2nnnn2C)cc1S(=O)(=O)NCc1ccccc1`, 0.502.
As for `CC(C)(C)OC(=O)N1CCOCCOCCN(C(=O)OC(C)(C)C)CCOCCOCC1`, the z-score is 1.07.
The result for `O=C(Nc1ccc(Cl)cc1)Nc1cccnc1` reads 0.471; that for `Cc1c(C(=O)Nc2ccc3c(c2)OCCO3)sc2nc(-c3ccccc3)cn12`, 0.0973.
The result for `Cc1onc(-c2ccccc2Cl)c1C(=O)Nc1ccc(CN2CCCC2)cc1` reads 0.171; that for `Cc1cccc(N2CCN(C(=O)c3ccc4nc(-c5ccco5)c(-c5ccco5)nc4c3)CC2C)c1` (centres undefined), -0.256.
Molecule `COC(=O)c1ccc(Cl)c(NC(=O)CN(c2ccc(OC)cc2)S(=O)(=O)c2ccccc2)c1` yielded a z-score of -0.285.
Take `O=c1[nH]c2cc3c(cc2cc1CN(Cc1ccc2c(c1)OCO2)Cc1nnnn1CC1CCCO1)OCO3` (centres undefined): the z-score is 0.00294.
In the case of `Cc1cc(C)c(C)c(OCCCOc2cccc3cccnc23)c1` it was 0.114; in that of `CC(C)Nc1cc(N2CCCC2)ccc1[N+](=O)[O-]`, -0.745; in that of `Cc1nc2ccc(Br)cn2c1NC(C)(C)C`, 0.582.
The result for `CCn1c(=O)c(=O)[nH]c2cc(C(=O)NC3CC3)ccc21` reads -0.438; that for `CC1CCN(c2nc3nonc3nc2N2CCC(C)CC2)CC1`, -0.739.
In the case of `O=C(COc1ccc(Cl)cc1)NCc1nnc(SCC(=O)NCc2ccc3c(c2)OCO3)o1` it was 0.889; in that of `Cc1cc(OCc2nc(-c3cccnc3)no2)c(C)cc1Br`, 0.358.
`CC1CC(=O)c2cnc(Nc3ccccc3)nc2C1` (centres undefined): the z-score was -0.16.
In the case of `CCN1CCN(C(=S)Nc2ccc([N+](=O)[O-])cc2)CC1` it was -0.0826; in that of `Nc1cc(Cl)nc(N/N=C/c2c(O)ccc3ccccc23)n1`, 0.0481.
The result for `O=C(CNC(=O)c1ccccc1F)OC(C(=O)Nc1cc(C(F)(F)F)ccc1Cl)c1ccccc1` (centres undefined) reads -0.141; that for `CCCC1(C(=O)O)NC(c2ccc(OC)cc2O)C2C(=O)N(c3ccc(OC)cc3)C(=O)C21` (centres undefined), 0.2; that for `CC1CN(C(=O)c2ccc(C(=O)c3ccccc3)cc2)CC(C)O1` (centres undefined), -0.13.
The result for `CCCC(=O)NC(=S)Nc1ccccc1N1CCOCC1` reads -0.0717; that for `Cc1nn(-c2ccccc2)c2c1C(c1ccc(F)cc1F)C(C#N)=C(N)O2` (centres undefined), -0.569; that for `Cc1cc(C(=O)O)sc1C`, -0.186.
Molecule `O=S(=O)(Nc1nc2ccccc2nc1N1CCN(c2ccccc2F)CC1)c1ccc(Cl)cc1` came in with a z-score of 0.484.
The result for `O=C(O)c1cc(N2C(=O)C3C4C=CC(C4)C3C2=O)ccc1NCc1cccnc1` (centres undefined) reads -0.31; that for `Nc1ccc(C(O)(C(F)(F)F)C(F)(F)F)cc1`, -0.145.
Regarding `O=C(NCC1CCCO1)c1ccc(COc2ccc(F)cc2)o1` (centres undefined), the z-score came to 0.0407.
The result for `CCCn1c(/N=C/c2c[nH]c3ccccc23)nc2ccccc21` reads 0.568.
The result for `COc1ccc(C(=O)OCC(=O)Nc2ccc(F)cc2F)cc1OC` reads -0.249; that for `CC(C)(C)c1ccc(S(=O)(=O)N2CCC(c3nc4ccc(Cl)cc4[nH]3)CC2)cc1`, 0.342.
The result for `COC(=O)c1c(NC(=O)CN2CCOCC2)sc2c1CCC(C)C2` (centres undefined) reads 0.288; that for `CCOc1ccc(CCNC(=O)CCc2nc(-c3ccc(OC)cc3)no2)cc1OCC`, -0.515; that for `O=C(CC1NC(=O)NC1=O)NC1(C(=O)NC2CCCCC2)CCCCC1` (centres undefined), 0.351.
Consider `C/C(=N/NS(=O)(=O)c1ccc(F)cc1)c1ccc(NC(=O)c2ccc(C)o2)cc1`, for which the z-score is -0.145.
`CC1Cc2nc(SCC(=O)Nc3nc4ccccc4s3)n(C)c(=O)c2S1` (centres undefined) registered a z-score of -2.75.
In the case of `O=C(COc1ccccc1)Nc1cccc2c1CCCC2` it was -0.151; in that of `Fc1ccc(-c2csc(/C=C/c3ccc4c(c3)OCO4)n2)cc1`, 0.0193; in that of `COc1ccccc1/C=N/n1c(N)c(S(=O)(=O)c2cccs2)c2nc3ccccc3nc21`, -0.0934.
